Experimental data as given in patent US9574016B2, “Complex of bi-specific antibody and digoxigenin conjugated to a therapeutic or diagnostic agent” (Hoffmann-La Roche Inc., priority 2009, dated 2017).
Where “and” joins values, the source holds several entries; their conditions need not be identical. Identical values can stand only once.

How the values were obtained:
[1] = target: siRNA-DIG (Eg5-siRNA-DIG); assay: SPR (Biacore) binding to mono-digoxygenated siRNA; settings: 25° C.
DIG-siRNA2349 = assay: SPR study, binding to DIG-siRNA2349; settings: analyte DIG-siRNA2349; listed as <DIG>hu2
Experimental: (§1) For that, binding properties of the recombinant <Dig> derivatives were analyzed by surface plasmon resonance (SPR) technology using a Biacore T100 or Biacore 3000 instrument (GE Healthcare Bio-Sciences AB, Uppsala). This system is well established for the study of molecule interactions. It allows a continuous real-time monitoring of ligand/analyte bindings and thus the determination of association rate constants (ka), dissociation rate constants (kd), and equilibrium constants (KD) in various assay settings. SPR-technology is based on the measurement of the refractive index close to the surface of a gold coated biosensor chip. Changes in the refractive index indicate mass changes on the surface caused by the interaction of immobilized ligand with analyte injected in solution. If molecules bind to immobilized ligand on the surface the mass increases, in case of dissociation the mass decreases. To perform the binding studies capturing anti-human IgG antibody was immobilized on the surface of a CM5 biosensor chip using amine-coupling chemistry. Flow cells were activated with a 1:1 mixture of 0.1 M N-hydroxysuccinimide and 0.1 M 3-(N,N-dimethylamino)propyl-N-ethylcarbodiimide at a flow rate of 5 μl/min. […] A reference control flow cell was treated in the same way but with vehicle buffers only instead of the capturing antibody. Surfaces were blocked with an injection of 1 M ethanolamine/HCl pH 8.5. To compare the binding of the humanized protein variants with that of the murine <Dig> IgG from the original hybridoma 19-11, capturing anti-mouse IgG antibody was immobilized on the surface of a CM5 biosensor chip in the same fashion as described above for the anti-human IgG antibody. To evaluate the functionality of the recombinant <Dig> derivatives, binding of the recombinant hu<Dig> modules, incl. […]

DIG-Myoglobin = assay: SPR study, binding to DIG-myoglobin; settings: analyte DIG-Myoglobin; listed as <DIG>hu2
Experimental: as §1, with “antibody.” for “antibody. Surfaces were blocked with an injection of 1 M ethanolamine/HCl pH 8.5. To compare the binding of the humanized protein variants with that of the murine <Dig> IgG from the original hybridoma 19-11, capturing anti-mouse IgG antibody was immobilized on the surface of a CM5 biosensor chip in the same fashion as described above for the anti-human IgG antibody. To evaluate the functionality of the recombinant <Dig> derivatives, binding of the recombinant hu<Dig> modules, incl.”

[2] = target: siRNA-(2x)DIG (Eg5-siRNA-(2×)DIG); assay: SPR (Biacore) binding to bi-digoxygenated siRNA; settings: 25° C.

B1: humanized DIG-IgG: recombinant humanized <Dig> IgG defined by Seq. ID. NO. 3, 4, 5 and 6 (protein)
chain 1: QVQLVESGGGLVKPGGSLRLSCAASGFTFSDYAMSWIRQAPGKGLEWVSSINIGATYIYYADSVKGRFTISRDNAKNSLYLQMNSLRAEDTAVYYCARPGSPYEYDKAYYSMAYWGQGTTVTVSS
chain 2: QVQLVESGGGLVKPGGSLRLSCAASGFTFSDYAMSWIRQAPGKGLEWVSSINIGATYIYYADSVKGRFTISRDNAKNSLYLQMNSLRAEDTAVYYCARPGSPYEYDKAYYSMAYWGQGTTVTVSS[human IgG1 constant region not shown]
chain 3: DIQMTQSPSSLSASVGDRVTITCRASQDIKNYLNWYQQKPGKAPKLLIYYSSTLLSGVPSRFSGSGSGTDFTLTISSLQPEDFATYYCQQSITLPPTFGGGTKVEIKR
chain 4: DIQMTQSPSSLSASVGDRVTITCRASQDIKNYLNWYQQKPGKAPKLLIYYSSTLLSGVPSRFSGSGSGTDFTLTISSLQPEDFATYYCQQSITLPPTFGGGTKVEIKRTVAAPSVFIFPPSDEQLKSGTASVVCLLNNFYPREAKVQWKVDNALQSGNSQESVTEQDSKDSTYSLSSTLTLSKADYEKHKVYACEVTHQGLSSPVTKSFNRGEC
modifications: Humanized <dig> VH; Humanized <dig> H-chain; humanized <dig> VL; humanized <dig> L-chain
B1 was tested, and the Kd [1] was 12 nM, the Kd (DIG-siRNA2349) was 14.5 nM and 15.6 nM and the ka (DIG-siRNA2349) was 645000 M⁻¹ s⁻¹ and 628000 M⁻¹ s⁻¹. For the same molecule, the kd (DIG-siRNA2349) was 0.00937 s⁻¹ and 0.0098 s⁻¹, the ka (DIG-Myoglobin) was 620000 M⁻¹ s⁻¹ and 749000 M⁻¹ s⁻¹ and the kd (DIG-Myoglobin) was 0.00982 s⁻¹ and 0.00881 s⁻¹. It also gave a Kd [2] of 0.008 nM.
